Results on 44 sequences are retold here after the supplement of paper PMC11417369.

The list shows a part of the results.

This assay has as its system PfSIP2 AP2 domain 1 (GST-tagged). Put plainly: gcPBM binding intensity (ln(normalized median fluorescence intensity)); higher = stronger DNA binding. In short, it runs like this: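 Each value is the highest Masliner-normalised natural-log median intensity across replicate spots of either orientation of a probe. The probes were primer-extended double-stranded 36-bp intergenic genomic sequences on an Agilent 4 × 180k array, alongside negative controls, exposed for 1 h to GST-tagged P. falciparum DNA-binding domains expressed in E. coli. Bound protein was picked up with Alexa488 anti-GST antibody and scanned at 488 nm.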
For the sequence “TAATGAATTTAAATTTTAAAATTAATAAAAAAAATA [TGCATGCA_negctrl_site15]”, the “gcPBM binding intensity (ln)” value turned out to be 6.87.

For the sequence “CAAAATGTTTCTCATTGTACACAAAATAAATGTCCT [XGTACX_site6798]”, the “gcPBM binding intensity (ln)” value amounted to 6.9.

“ATACATATGTATATTTGTACATATTAGACAATCTTA [XGTACX_site6706]”: the “gcPBM binding intensity (ln)” value was determined as 6.86.

Take “ATTAGTAAATTTATATGTACACATTGTTATTTTATA [XGTACX_site1177]”: the “gcPBM binding intensity (ln)” value turned out to be 7.13.

Take “ACATTTACAAGGAAAGTGCATATAAGAAAAATAAAA [GTGCAC_site9587]”: the “gcPBM binding intensity (ln)” value amounted to 8.95.

For “TTATTCATTTTTATTTGTACATAATTATATGAAATT [XGTACX_site6389]”, the “gcPBM binding intensity (ln)” value was found to be 6.97.

Consider “TTTTATATTTTATGCACACTTATAAGAAATATGTAC [CACACA_site3040]”, for which the “gcPBM binding intensity (ln)” value was 8.27.

As to “TATTTATTAAAACACACACACACACCCACAAAATAA [CACACA_site241]”, the “gcPBM binding intensity (ln)” value stood at 7.39.

In the case of “ATAATATATATATAAACACACAAAAAAAATTATATA [CACACA_site1534]”, the “gcPBM binding intensity (ln)” value was found to be 7.13.

For “TTATGTATTCATTTTTTTTAAGCACCCCAAAATGAT [CACACA_negctrl_site1344]”, the “gcPBM binding intensity (ln)” value came out at 9.66.

With “ATTTTTTTTTATGATACACACTTGGATAATTAAAAC [CACACA_site4473]”, the “gcPBM binding intensity (ln)” value came to 7.26.

In the case of “ATAGGTTCCCAAAATGCACACCAATGAAATTATTTA [CACACA_site8081]”, the “gcPBM binding intensity (ln)” value was 7.25.

As for “CAAGCTTTTTCCTTTACACACATTAGTTATTTATAT [CACACA_site6781]”, the “gcPBM binding intensity (ln)” value is 6.91.

Turning to “ATATTATTTTAAAGTACACACATATATTAAGATATA [CACACA_site5306]”, the “gcPBM binding intensity (ln)” value was found to be 7.32.

As for “ATGATTTCACAAGACACACACATACAAATTTATATA [CACACA_site3909]”, the “gcPBM binding intensity (ln)” value came out at 7.3.

For the sequence “TATTTTATATTTTATGCACACTTATAAGAAATATGT [CACACA_site5647]”, the “gcPBM binding intensity (ln)” value came out at 9.6.

With TTAATATATTATCTGGTGCATAAACACGTTATACCT, the “gcPBM binding intensity (ln)” value was determined as 9.46.

Take “CAGTATTACATGAGGACACACACAAAAAAAATATAT [CACACA_site8156]”: the “gcPBM binding intensity (ln)” value was found to be 7.08.

Take “TATTAATATGGTAATACACACTAATATACTTTTGTT [CACACA_site6860]”: the “gcPBM binding intensity (ln)” value worked out at 6.89.

For “ATATATATATATATATGTACGTATTCATAAACAACA [XGTACX_site4282]”, the “gcPBM binding intensity (ln)” value was determined as 9.08.

As to “CTGTAAAAAATATAAACACACATAGAGATATATAAA [CACACA_site6292]”, the “gcPBM binding intensity (ln)” value amounted to 6.93.

As for “TTTAATGTTACTCCTTGTACACAAAATAGTGTTATA [XGTACX_site8416]”, the “gcPBM binding intensity (ln)” value came to 7.04.

“TAAGTATATTTTATATGTACTTATATATTTAATTTT [XGTACX_site4615]”: the “gcPBM binding intensity (ln)” value was 6.88.

“AACAAATAAAAAAAAATAAAAATAAAAATAAAAAAA [XGTACX_negctrl_site451]”: the “gcPBM binding intensity (ln)” value was 6.79.

For “TTTAAAATTATAAGGATTAAAAAAAAAAAAAATAAA [CACACA_negctrl_site114]”, the “gcPBM binding intensity (ln)” value was determined as 6.63.

Consider “AAGAATTATATTAATAGTACATATATATTAATTTAT [XGTACX_site5713]”, for which the “gcPBM binding intensity (ln)” value amounted to 7.03.

On to “TTATTTATGAAGTATACACACAATATAGATTTATAT [CACACA_site6703]”, for which the “gcPBM binding intensity (ln)” value was determined as 6.96.

With “TTTTGTTATTATAAATAGTAACATTTGTGAATATAT [TGCATGCA_negctrl_site132]”, the “gcPBM binding intensity (ln)” value was determined as 6.86.

For “AAGACATTTTTTTGTTGTACGTCTTCATTTATTGTA [XGTACX_site2890]”, the “gcPBM binding intensity (ln)” value was found to be 6.98.

Take “ATAATGAAAACAAGCACACATACATAAAATAAAATA [CACACA_site3257]”: the “gcPBM binding intensity (ln)” value is 7.04.

For “ATGGAAGGATAATAAAAACCTTTACCTTTCTGTTTA [GTGCAC_negctrl_site380]”, the “gcPBM binding intensity (ln)” value amounted to 6.63.

Take “ATAAATTTTTAAACAGCACACATAAATATAATATAT [CACACA_site8691]”: the “gcPBM binding intensity (ln)” value was determined as 7.06.

For the sequence “AATATTACAATTTGGTGTACAGGTGCACATGCCTCA [XGTACX_site1730]”, the “gcPBM binding intensity (ln)” value turned out to be 11.5.

With “TCTACAATTTTAATTACACACTATAAAAAAGAAAGA [CACACA_site5624]”, the “gcPBM binding intensity (ln)” value was 6.98.

On to “TAGCTTATAAGATATGCACACACAACACTTACAAAA [CACACA_site8174]”, for which the “gcPBM binding intensity (ln)” value is 7.45.

With “ATAATAACTGATAAATGTACATATAAATTTTATGAT [XGTACX_site195]”, the “gcPBM binding intensity (ln)” value was 7.06.

“ATAATTTAAAAACATTGTACATTAATATATATGTAT [XGTACX_site8970]”: the “gcPBM binding intensity (ln)” value is 7.

Turning to “AGGATATGCGGACACACACACATATATATATATATA [CACACA_site5247]”, the “gcPBM binding intensity (ln)” value was 9.5.

For “TTTATATTTCTTCATCGTACACATAAAAAAAAAAAA [XGTACX_site3244]”, the “gcPBM binding intensity (ln)” value worked out at 7.31.

With “ATACTCACGAAACACACACACAATATATATATATAT [CACACA_site4136]”, the “gcPBM binding intensity (ln)” value amounted to 9.24.

Consider TTTTATATTTTAAGAGTGCATTTTATATCTTTTTCT, for which the “gcPBM binding intensity (ln)” value turned out to be 8.74.

For the sequence “GAAAATATTAAATGAAGTACAATATTTATGTTACTT [XGTACX_site8737]”, the “gcPBM binding intensity (ln)” value stood at 6.71.

For “TGAAAGAATGTTAATAGTACACACAATTATTATATA [XGTACX_site7936]”, the “gcPBM binding intensity (ln)” value amounted to 6.93.

For “TAAGAACTATTCAGTAGTACCTATATGGATTACTAA [XGTACX_site4278]”, the “gcPBM binding intensity (ln)” value was found to be 6.57.
